# Source: the supplement of paper PMC8728848
# The list shows a part of the results.
# Assays:
# Test in all cases: glycan array binding signal (z-score within array); higher = stronger binding
# Conditions in all cases: glycan notation: IUPAC condensed, linker removed
# [1] = target: GlcNAc(b1-3)Gal(b1-4)GlcNAc(b1-3)Gal(b1-4)GlcNAc(b1-2)Man(a1-3)[GlcNAc(b1-3)Gal(b1-4)GlcNAc(b1-3)Gal(b1-4)GlcNAc(b1-2)Man(a1-6)]Man(b1-4)GlcNAc(b1-4)GlcNAc
# In short: (§1)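 Columns mapping to the same glycan were averaged after glycan names were converted to IUPAC-condensed notation. The data come from 3228 arrays in the Consortium for Functional Glycomics database, limited to those with an available protein sequence. Binding is reported as a within-array Z-score averaged across arrays of one protein sequence and across linkers.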
# [2] = target: GlcNAc(b1-3)Gal(b1-4)GlcNAc(b1-3)Gal(b1-4)GlcNAc(b1-2)Man(a1-3)[GlcNAc(b1-3)Gal(b1-4)GlcNAc(b1-3)Gal(b1-4)GlcNAc(b1-2)Man(a1-6)]Man(b1-4)GlcNAc(b1-4)[Fuc(a1-6)]GlcNAc
# In short: as §1
# [3] = target: GlcNAc(b1-3)Gal(b1-4)GlcNAc(b1-3)Gal(b1-4)GlcNAc(b1-2)[GlcNAc(b1-3)Gal(b1-4)GlcNAc(b1-3)Gal(b1-4)GlcNAc(b1-6)]Man(a1-6)[GlcNAc(b1-3)Gal(b1-4)GlcNAc(b1-3)Gal(b1-4)GlcNAc(b1-2)Man(a1-3)]Man(b1-4)GlcNAc(b1-4)[Fuc(a1-6)]GlcNAc
# In short: as §1
# [4] = target: GlcNAc(b1-3)Gal(b1-4)GlcNAc(b1-3)Gal(b1-4)GlcNAc(b1-3)Gal(b1-4)GlcNAc(b1-2)Man(a1-3)[GlcNAc(b1-3)Gal(b1-4)GlcNAc(b1-3)Gal(b1-4)GlcNAc(b1-3)Gal(b1-4)GlcNAc(b1-2)Man(a1-6)]Man(b1-4)GlcNAc(b1-4)GlcNAc
# In short: as §1
# [5] = target: GlcNAc(b1-3)Gal(b1-4)GlcNAc(b1-3)Gal(b1-4)GlcNAc(b1-3)Gal(b1-4)GlcNAc(b1-2)Man(a1-3)[GlcNAc(b1-3)Gal(b1-4)GlcNAc(b1-3)Gal(b1-4)GlcNAc(b1-3)Gal(b1-4)GlcNAc(b1-2)Man(a1-6)]Man(b1-4)GlcNAc(b1-4)[Fuc(a1-6)]GlcNAc
# In short: as §1
# [6] = target: GlcNAc(b1-3)Gal(b1-4)GlcNAc(b1-3)Gal(b1-4)GlcNAc(b1-3)Gal(b1-4)GlcNAc(b1-2)[GlcNAc(b1-3)Gal(b1-4)GlcNAc(b1-3)Gal(b1-4)GlcNAc(b1-3)Gal(b1-4)GlcNAc(b1-6)]Man(a1-6)[GlcNAc(b1-3)Gal(b1-4)GlcNAc(b1-3)Gal(b1-4)GlcNAc(b1-3)Gal(b1-4)GlcNAc(b1-2)Man(a1-3)]Man(b1-4)GlcNAc(b1-4)[Fuc(a1-6)]GlcNAc
# In short: as §1
# [7] = target: GlcNAc(b1-3)Gal(b1-4)GlcNAc(b1-3)Gal(b1-4)GlcNAc(b1-3)Gal(b1-4)GlcNAc(b1-3)Gal(b1-4)GlcNAc(b1-2)Man(a1-3)[GlcNAc(b1-3)Gal(b1-4)GlcNAc(b1-3)Gal(b1-4)GlcNAc(b1-3)Gal(b1-4)GlcNAc(b1-3)Gal(b1-4)GlcNAc(b1-2)Man(a1-6)]Man(b1-4)GlcNAc(b1-4)GlcNAc
# In short: as §1
# [8] = target: GlcNAc(b1-3)Gal(b1-4)GlcNAc(b1-3)Gal(b1-4)GlcNAc(b1-3)Gal(b1-4)GlcNAc(b1-3)Gal(b1-4)GlcNAc(b1-2)Man(a1-3)[GlcNAc(b1-3)Gal(b1-4)GlcNAc(b1-3)Gal(b1-4)GlcNAc(b1-3)Gal(b1-4)GlcNAc(b1-3)Gal(b1-4)GlcNAc(b1-2)Man(a1-6)]Man(b1-4)GlcNAc(b1-4)[Fuc(a1-6)]GlcNAc
# In short: as §1
# [9] = target: GlcNAc(b1-3)Gal(b1-4)GlcNAc(b1-3)Gal(b1-4)GlcNAc(b1-3)Gal(b1-4)GlcNAc(b1-3)Gal(b1-4)GlcNAc(b1-2)[GlcNAc(b1-3)Gal(b1-4)GlcNAc(b1-3)Gal(b1-4)GlcNAc(b1-3)Gal(b1-4)GlcNAc(b1-3)Gal(b1-4)GlcNAc(b1-6)]Man(a1-6)[GlcNAc(b1-3)Gal(b1-4)GlcNAc(b1-3)Gal(b1-4)GlcNAc(b1-3)Gal(b1-4)GlcNAc(b1-3)Gal(b1-4)GlcNAc(b1-2)Man(a1-3)]Man(b1-4)GlcNAc(b1-4)[Fuc(a1-6)]GlcNAc
# In short: as §1
# [10] = target: GlcNAc(b1-3)Gal(b1-4)GlcNAc(b1-3)Gal(b1-4)GlcNAc(b1-3)GalNAc
# In short: as §1
# [11] = target: GlcNAc(b1-3)Gal(b1-4)GlcNAc(b1-3)GalNAc
# In short: as §1
# [12] = target: GlcNAc(b1-3)Gal(b1-4)GlcNAc(b1-3)[GlcNAc(b1-3)Gal(b1-4)GlcNAc(b1-3)]GalNAc
# In short: as §1
# [13] = target: GlcNAc(b1-3)Gal(b1-4)GlcNAc(b1-6)[Gal(b1-3)]GalNAc
# In short: as §1
# [14] = target: GlcNAc(b1-3)Gal(b1-4)GlcNAc(b1-6)[GlcNAc(b1-3)Gal(b1-3)]GalNAc
# In short: as §1
# [15] = target: GlcNAc(b1-3)Gal(b1-4)GlcNAc(b1-6)[GlcNAc(b1-3)]Gal(b1-4)GlcNAc
# In short: as §1
# [16] = target: GlcNAc(b1-3)GalNAc
# In short: as §1
# [17] = target: GlcNAc(b1-3)Man
# In short: as §1
# [18] = target: GlcNAc(b1-3)[GlcNAc(b1-4)][GlcNAc(b1-6)]GlcNAc
# In short: as §1
# [19] = target: GlcNAc(b1-3)[GlcNAc(b1-6)]Gal(b1-4)GlcNAc
# In short: as §1
# [20] = target: GlcNAc(b1-3)[GlcNAc(b1-6)]GalNAc
# In short: as §1
# [21] = target: GlcNAc(b1-4)Gal(b1-4)GlcNAc
# In short: as §1
# [22] = target: GlcNAc(b1-4)GlcNAc
# In short: as §1
# [23] = target: GlcNAc(b1-4)GlcNAc(b1-4)GlcNAc
# In short: as §1
binder,measurement,setting,value
"InvD YPIII (Yersinia pseudotuberculosis), B1JSC0 (protein) MIKYFSFFKKPEPIVGILPNRQSHHILPTHIRRVAWGTLLLQLFIPLSVSFSPAIAAMKASKADTMVSYSSTEPYVLGSGETVAMVAKKYGITVDELKKINIYRTFSRPFTALTTGDEIDIPRKASPFSVDNNKDNRLSVENTLAGHAVAGATALSNGDVAKSGERMVRSAASNEFNNSAQQWLSQFGTARVQLNINDDFHLDGSAADVLIPLYDNEKSILFTQLGARNKDSRNTVNMGAGVRTFQGNWMYGANTFFDNDLTGKNRRIGVGAEAWTDYLKLSANNYFGITDWHQSRDFIDYNERPANGYDLRAEAYLPSYPQLGGKAMYEKYRGDDVALFGKDNRQKNPHAITAGVNYTPIPLVTIGAEHRAGKGGQNDSNINFQLNYRLGETWQSHIDPSAVAASRTLAGSRYDLVERNNHIVLDYQKQNLVRLSLPDSLAGDPFSQLSVTAQVTATHGLERIDWQSAELMAAGGVLKQTSKNGLEITLPEYQMNRTGGNSYILNAIAYDTQGNASSQASMLITVNAQKINIANSTLVAVPINIEANNSDTSVVTLTLKDDNNIPVTGQDVTFLSPLGTLSAMTDSGNGVYTATLTAGTVSGTTAVSSNINGSALDMTPATVTLNGNSGELSITHSMLVAAPVNIEANGSDTSVVTLTLRDSNNNPVTGQTVTFAGTLGTLGAVTEGSSGVYTATLTAGIMVGTSSITASVNSTALGVTPATVTLNGDSGNLSTTNSTLVAAPVNIEANSSDTSVVTLTLRDNNNNPVTGQTVVFTSTLGTLGNVTEQASGVYTATLTAGTVSGVASLSVSVGGNALGVTPATVTLNGDSGNLSTTNSTLVAAPVNIEANSSDTSVVTLTLRDNNNNPVTGQTVNFAGTLGTLGTVSEGSSGVYTTTLTAGTVAGVASLSVNVGGNALGVTPATVTLNGNSGNLSATNSTLVAAPVNIEANSSDTSVVTLTLRDNNNNPVTGQTVAFTSTLGTLGNVTEQASGVYTATLTAGTVSGVASLSVSVNSNALGVTPATVTLNGDSGNLSTTNSTLVAAPVNIEANSSDTSVVTLTLRDNNNNPVTGQTVAFTSTLGTLGNVTEQASGLYTATLTAGTVSGVASLSVNVGGNALGVTPATVTLNGDSGNLSATNSTLVAAPVNIEANSSDTSVVTLTLRDNNNNPVTGQTVAFTSTLGTLGNVTEQASGLYTATLTAGTVSGVASLSVNVGGTALGVTPATVTLNGDSGNLSTTNSTLVAAPVNIEANSSDTSVVTLTLRDNNNNPVTGQTVAFTSTLGTLGNVTEQASGLYTATLTAGTVSGVASLSVSVNSTALGVTPATVTLNGDSGNLSTTNSTLVAAPVNIEANSSDTSVVTLTLRDNNNNPVTGQTVAFTSTLGTLGNVTEQASGVYTATLTAGTVAGVASLSVNVGGNALGVTPATVTLNGDSGNLSTTNSTLVAAPVNIEANSSDTSVVTLTLRDNNNNPVTGQTVAFTSTLGTLGNVTEQASGVYTATLTAGTVSGVASLSVSVGSSALGVTPATVTLNGDSGNLSTTNSTLVAAPVNIEANNSDTSVVTLTLRDNNNNPVTGQTVAFTSTLGTLGNVTEQASGVYTATLTAGTVSGVASLSVSVNSNALGVTPATVTLNGDSGNLSTTNSTLVAAPVNIEANSSDTSVVTLTLRDNNNNPVTGQTVVFTSTLGTLGNVTEQASGLYTATLTAGTVSGVASLSVSVGGNALGVTGNITLAPGALDAARSILAVNKPSINADDRIGSTITFTAQDAQGNAITGLDIAFMTDLENSQIMTLVDHNDGTYTANINGTQTGIANIAVQSSGATIAGLAATMVTITPGAWNTTQATPVMTVALPITTCQSSSGVYKRYYIGIVTHELYDNYGNEISGILTYNLGAGRYTTVTSQNSSVSGSNGLTRRSNSPVSHFILTSDAYTSQAACYAERIANVNVTITVTAITDDFKTSAVNKVFILGTGSN",glycan array binding signal (z-score),[1],5.11
same,glycan array binding signal (z-score),[2],2.68
same,glycan array binding signal (z-score),[3],4.27
same,glycan array binding signal (z-score),[4],0.285
same,glycan array binding signal (z-score),[5],0.855
same,glycan array binding signal (z-score),[6],0.761
same,glycan array binding signal (z-score),[7],0.12
same,glycan array binding signal (z-score),[8],-0.117
same,glycan array binding signal (z-score),[9],-0.01
same,glycan array binding signal (z-score),[10],-0.229
same,glycan array binding signal (z-score),[11],-0.237
same,glycan array binding signal (z-score),[12],-0.349
same,glycan array binding signal (z-score),[13],-0.315
same,glycan array binding signal (z-score),[14],-0.162
same,glycan array binding signal (z-score),[15],-0.351
same,glycan array binding signal (z-score),[16],-0.278
same,glycan array binding signal (z-score),[17],0.301
same,glycan array binding signal (z-score),[18],-0.169
same,glycan array binding signal (z-score),[19],-0.394
same,glycan array binding signal (z-score),[20],0.194
same,glycan array binding signal (z-score),[21],0.059
same,glycan array binding signal (z-score),[22],0.089
same,glycan array binding signal (z-score),[23],-0.324
